Measured values: patent US11178870B2 (priority 2017, dated 2021)

Experiments:
Magnaporthe grisea = type: in vivo; conditions: class of control value, Table 7
Phytophthora infestans = type: in vivo; conditions: class of control value, Table 7
[1] = test system: Colletotrichum orbiculare; conditions: 250 ppm spray, 2.5 ml/pot; investigated 6 to 10 days after inoculation

| SMILES | Test A control value (blast on rice) (Magnaporthe grisea) | Test F control value (late blight on tomato) (Phytophthora infestans) | Test H control value (anthracnose on cucumber) [1] |
| --- | --- | --- | --- |
| Cc1ccsc1C1=C(c2c(F)cccc2F)N(C)C(=O)CC1 [Compound 457] | L (L shows the control value of 50% or less) | L (L shows the control value of 50% or less) | H (H shows the control value more than 50%) |
| Cn1c(-c2ccc(F)cc2F)c(-n2cc(F)cn2)cc(Br)c1=O [Compound 465] | H (H shows the control value more than 50%) | L (L shows the control value of 50% or less) | H (H shows the control value more than 50%) |
| Cc1cnn(-c2cc(Br)c(=O)n(N(C)C)c2-c2ccc(F)cc2Cl)c1Cl [Compound 479] | L (L shows the control value of 50% or less) | L (L shows the control value of 50% or less) | H (H shows the control value more than 50%) |
| CCn1c(-c2ccc(F)cc2F)c(-n2ncc(C)c2Cl)ccc1=O [Compound 506] | H (H shows the control value more than 50%) | L (L shows the control value of 50% or less) | H (H shows the control value more than 50%) |
| Cc1sc(Br)cc1-c1ccc(=O)n(C)c1-c1c(F)cccc1F [Compound 491] | L (L shows the control value of 50% or less) | L (L shows the control value of 50% or less) | L (L shows the control value of 50% or less) |
| CNn1c(-c2c(F)cccc2F)c(-n2ncc(C)c2Cl)cc(Br)c1=O [Compound 475] | H (H shows the control value more than 50%) | L (L shows the control value of 50% or less) | H (H shows the control value more than 50%) |
